# Measured values as given in PubChem BioAssay AID463173 (ICCB-Longwood Screening Facility, Harvard Medical School, 2010).
# In all, about 52,000 compounds went through this assay and about 1,700 (3.3%) were called active. No stated cut-off is given here; in the data, active means survival mostly below about 52% (no sharp cut-off); inactive means mostly above about 56%. This is one part of the list.
# Tested on: Wild type
# Assay: growth inhibition of S. aureus wild type versus tarO mutant, primary screen, teichoic acid synthesis inhibitors, RN4220, OD600 (AID 463173)
# Details: S. aureus RN4220 wild type/DeltatarO growth, OD600, 18 h, hits give low values, screened at 18.75 µg/mL (by protocol)
row,SMILES,survival
1,CC(C)=NOC1=NS(=O)(=O)c2ccccc21,inactive: 101%
2,CCOC(=O)c1cnc2nc(NCc3cccc(Br)c3)[nH]n2c1=O,inactive: 98%
3,Cc1cc(C)cc(NC(=O)C2CCCN2S(=O)(=O)c2ccc3c(c2)CCCC(=O)N3)c1 (centres undefined),inactive: 84%
4,COc1ccc(CCNC(=O)CCS(=O)(=O)c2cc(Br)cc3c2N(C(C)=O)CC3)cc1OC,inactive: 63%
5,Cc1cc(C)cc(-n2ccn(Cc3ccccc3C)c(=O)c2=O)c1,inactive: 86%
6,COc1ccccc1CNC(=O)CC(c1ccc(C)cc1)N1Cc2ccccc2C1=O (centres undefined),inactive: 60%
7,Cc1ccc(CNC(=O)C2COc3ccccc3C2)cc1 (centres undefined),inactive: 121%
8,COc1ccc2c(c1)Cc1sc(NC(=O)c3cccc(C)c3)nc1-2,active: 7%
9,O=C(CCC1CCCC1)NCc1ccco1,inactive: 120%
10,Cc1nc(C)c(C(=O)O)o1,inactive: 110%
11,COC(=O)CSc1nc2sc3c(c2c(=O)n1-c1ccccc1C)CC(C)(C)OC3,inactive: 95%
12,Clc1ccc(-c2nc3c4cnn(-c5ccccc5Br)c4ncn3n2)c(Cl)c1,inactive: 86%
13,Cc1oc(-c2ccc(C(=O)NCCC(C)C)cc2)nc1CN1CCc2ccccc21,inactive: 78%
14,CCc1ccc(NS(=O)(=O)c2cc(-c3cnc(C4CC4)o3)ccc2C)cc1,inactive: 136%
15,Cc1ccc(OCC(=O)OC2=C(C(=O)c3ccccc3)N(C)S(=O)(=O)c3ccccc32)cc1,inactive: 72%
16,Cc1ccccc1NC(=O)c1sc2nc3n(c(=O)c2c1C)CCC3,inactive: 84%
17,O=S(=O)(Nc1cccc(C(F)(F)F)c1)c1ccc(-c2cnc(C3CC3)o2)cc1,inactive: 77%
18,CN1C(=O)/C(=C\C2(C)N3CC4(C)CN2CC(C)(C3)C4=O)c2ccccc21 (centres undefined),inactive: 111%
19,Cc1nonc1OCCN1CCN(c2cnn(-c3ccccc3)c(=O)c2Cl)CC1,inactive: 114%
20,Cc1ccc(-n2nnc(-c3nc(-c4cccs4)no3)c2N)c(C)c1,inactive: 113%

row,SMILES,survival
1,O=C(c1cc2nc(-c3ccco3)cc(C(F)(F)F)n2n1)N1CCCc2ccccc21,inactive: 106%
2,CC(C)c1ccc(OCC(=O)Nc2c(C(=O)c3ccc(F)cc3)oc3ccccc23)cc1,inactive: 66%
3,COc1ccc(S(=O)(=O)c2c(C(=O)c3ccc(C)c(C)c3)cnc3ccc(F)cc23)cc1,inactive: 96%
4,COc1ccccc1CNC(=O)Cn1ncn2c(cc3sccc32)c1=O,inactive: 76%
5,Cc1cccc(C)c1NC(=O)CS(=O)CC(=O)Nc1ccc(F)c(F)c1 (centres undefined),inactive: 107%
6,Cc1ccc(Nc2c(-c3ccsc3)nc3c(C)cccn23)cc1,active: -3%
7,O=C(NCC1CC1)C1C2C3C4CC5C3C5C4C12 (centres undefined),inactive: 113%
8,COc1ccccc1NC(=O)CC(c1cc(OC)c(OC)c(OC)c1)N1Cc2ccccc2C1=O (centres undefined),inactive: 77%
9,CCCCCSc1nc2sc3c(c2c(=O)n1-c1ccc(OC)cc1)CCN(C(C)=O)C3,active: -21%
10,COc1ccc(S(=O)(=O)NCc2cccn2Cc2cccc(C)c2)cc1,inactive: 66%
11,CCOC(=O)CSc1nnc2n(-c3ccccc3)c(=O)c3c4c(sc3n12)CC(C(C)(C)C)CC4 (centres undefined),inactive: 15%
12,COc1cc2c(cc1NC(=O)COc1ccc(Cl)cc1Br)oc1ccccc12,inactive: 83%
13,Cc1c(C)n(C)c2ccc(C(=O)NCc3cccc(F)c3)cc12,inactive: 71%
14,CC(C)(C)NC(=O)CSc1nc2ccccc2c(=O)[nH]1,inactive: 105%
15,COC(=O)c1cc2sc(Cl)cc2n1Cc1cc(C)ccc1C,inactive: 35%
16,CCOc1ccc(CNC(=O)CCCc2cn(C)c3ccccc23)cc1OC,inactive: 117%
17,Cc1cc(=O)c2cc(C(=O)Nc3ccccc3C)ccc2[nH]1,inactive: 87%
18,CCOc1cc2sc(N3CCC(C(=O)Nc4cc(C)cc(C)c4)CC3)nc2cc1Br,inactive: 123%
19,CC(=O)Nc1ccc(NC(=O)CC2C(=O)Nc3ccccc3N2C(C)=O)cc1 (centres undefined),inactive: 101%
20,COc1ccc(Cn2ccc3nc(C)c(C(=O)NCc4cccc(OC)c4)cc3c2=O)cc1,inactive: 75%

row,SMILES,survival
1,Cc1ccc(-n2nc3c(=O)n(CC(=O)NCC(C)c4ccccc4)nc(C)c3c2C)cc1 (centres undefined),inactive: 89%
2,CCc1ccccc1NC(=O)Cn1c2ncccc2c(=O)n1-c1ccccc1,inactive: 143%
3,CN1C(=O)C(=C(C#N)C#N)c2cc(Br)ccc21,inactive: 109%
4,COC(=O)c1ccc(CSc2nnc3ccc4ccccc4n23)cc1,inactive: 88%
5,COc1ccccc1Cn1cc(C(=O)c2ccc(C)cc2)c(=O)c2cc3c(cc21)OCCO3,inactive: 83%
6,CCn1cc2c(n1)-c1c(oc(C(=O)Nc3cccc(C(F)(F)F)c3)c1C)CC2,inactive: 91%
7,COc1ccc(CCNC(=O)CCCCn2c(=O)c3ccccc3n(Cc3ccccc3Cl)c2=O)cc1OC,inactive: 102%
8,O=C(CN1CCSc2ccccc21)N1CCN(c2ccc(F)cc2)CC1,inactive: 63%
9,Cc1ccc(N(C)C(=O)c2cc(S(=O)(=O)N3CCOCC3)cn2C)cc1,inactive: 84%
10,CCCN(Cc1cccs1)C(=O)Nc1cc(OC)ccc1OC,inactive: 81%
11,CC(C)C(OC(=O)c1cccs1)C(=O)NC1CCCC1 (centres undefined),inactive: 101%
12,COc1ccc(C(=O)Nc2ccc(C(=O)OCc3cc(=O)n4nc(C5CC5)sc4n3)cc2)cc1,active: -3%
13,COc1ccccc1-c1noc(CCCC(=O)Nc2cc(C)ccc2C)n1,inactive: 87%
14,CC(=O)c1ccc(NC(=O)CCOc2ccccc2)cc1,inactive: 150%
15,Cc1ccc(-n2nc3c(N4CCC(C(=O)NCc5ccccc5Cl)CC4)nnc(C)c3c2C)cc1,inactive: 135%
16,CCN(CC)C(=O)Nc1ccc2c(c1)N(Cc1ccccc1)C(=O)c1ccccc1S2,inactive: 80%
17,COc1ccc(OC)c(S(=O)(=O)NCCc2csc(-c3cccc(F)c3)n2)c1,inactive: 135%
18,CCOC(=O)c1c(C)[nH]c(C)c1S(=O)(=O)NCC(=O)N1CCN(c2ccccc2OC)CC1,inactive: 73%
19,COc1cc(C(=O)NC(c2ccc(Cl)cc2)c2cc(Cl)c3cccnc3c2O)cc(OC)c1OC (centres undefined),inactive: 87%
